Test results as given in US20260151501A1, “ANTIBODY-DRUG CONJUGATE COMPRISING ANTI-CLAUDIN-18.2 ANTIBODY, AND THERAPEUTIC USE THEREOF FOR CANCER” (ABTIS CO., LTD., priority 2022, published 2026).

Key:
[1] = system: SNU601 cell line; experiment: In vivo drug efficacy, SNU601 gastric cancer tumor model; set-up: species or system BALB/c nude mouse; details: for Tumor weight (mean ± standard deviation): Day 28 after first administration
Protocol: The SNU601 cell line, which is a CLDN18.2-positive gastric cancer cell line, was cultured in an RPMI culture solution containing 10% FBS and 1% penicillin/streptomycin in an incubator under the conditions of 37° C. and 5% CO2. The SNU601 cell line was regularly sub-cultured once a week through trypsin-ethylenediaminetetraacetic acid (EDTA) treatment.
(§1) For tumor development, the SNU601 cell line (1×10^7) was mixed with serum-free medium and Matrigel, and the resulting mixture was subcutaneously inoculated into the left flank of each BALB/c nude mouse (purchased from Charles River Laboratories Japan Inc.). The mice were randomly assigned to eight groups (G1 to G8) on the basis that the average tumor volume in each group reached about 155 mm^3.
(§2) All animals were observed twice a day for mortality, abnormal symptoms, pain, and signs of stress, and once a day for clinical signs. The changes in body weight and the tumor volume were measured three times a week, and the tumor weight was determined after autopsy.
The tumor volume, tumor difference, and tumor growth inhibition were calculated as follows: […]
Tf is the last tumor volume measured before autopsy, and Ti is the first tumor volume measured.
Numerical data regarding the study was calculated as mean and standard deviation. Group variances were compared using the Bartlett's test at a 0.05 significance level for each parameter. When the difference between group variances was not significant, a parametric one-way analysis of variance (ANOVA) was performed. When a significant difference between means was indicated by ANOVA (p≤0.05), group mean comparison was performed between the control and each treatment group using the Dunnett's test. […] When significance was found by the Kruskal-Wallis test (p≤0.05), the significance of the difference between the control and each treatment group was assessed using the Dunn's test. Significance was reported at the levels of 0.05, 0.01 and 0.001 for the comparison of each group. All statistical analyses were performed using GraphPad PRISM® Version 5.0.

[2] = Body weight and gastric histology in SNU601 tumor model mice; format: in vivo, BALB/c nude mouse
Description: as §1, §2

[3] = molecular target: T1, claudin18.1 protein (CLDN18.1) (Homo sapiens, UniProt P56856); experiment: Cell-based ELISA binding to Claudin18.1 CHO-K1 cells
T1 construct: expressed in transfected cells; host or cells: CHO-K1 (transient, pcDNA3.1 vector)
T1 sequence (P56856 whole entry): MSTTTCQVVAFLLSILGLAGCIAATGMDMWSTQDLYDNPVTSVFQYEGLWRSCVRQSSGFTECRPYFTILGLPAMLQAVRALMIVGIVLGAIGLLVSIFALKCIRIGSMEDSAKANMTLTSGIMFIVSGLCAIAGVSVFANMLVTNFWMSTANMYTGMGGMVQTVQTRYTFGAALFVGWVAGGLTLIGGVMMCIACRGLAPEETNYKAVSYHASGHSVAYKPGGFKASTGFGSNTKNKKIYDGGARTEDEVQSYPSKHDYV
Protocol: OD value measurement through ELISA was performed by measuring the absorbance at 450 nm using a UV-Vis spectrometer.
A CHO-K1 cell line (hereinafter, referred to as “Claudin18.1 CHO-K1”) into which a gene (SEQ ID NO: 18) encoding the claudin18.1 protein (CLDN18.1) was transiently transfected, a CHO-K1 cell line (hereinafter, referred to as “Claudin18.2 CHO-K1”) into which a gene (SEQ ID NO: 19) encoding the claudin18.2 protein (CLDN18.2) was transiently transfected, and a CHO-K1 cell line (hereinafter, referred to as “MOCK CHO-K1”) into which only a NOCK vector (empty vector) was transiently transfected were prepared. At this time, a pcDNA3.1 vector was used for Claudin18.1 CHO-K1, and a pcDNA3.1 (+) vector was used for Claudin18.2 CHO-K1. […]
Transient transfection was performed according to the TransIT2020 manual, the transfected cells were plated on a 96-well plate for culture, and then treated with each of antibody-A and ADC-A. Thereafter, cell-based enzyme-linked immunosorbent assay (ELISA) was performed, and optical density (OD) values were measured.
The measured results were used for a regression analysis using GraphPad PRISM® 9.0 software to calculate EC50 and Bmax. The cell binding affinity of antibody-A and ADC-A was evaluated based on the calculated values.

[4] = system: MIA PaCa-2 (CLDN18.2-) cell line; experiment: Cytotoxicity (CellTiter-Glo cell viability), MIA PaCa-2 (CLDN18.2-); format: cell-based; details: up to the highest treatment concentration; MIA PaCa-2 (CLDN18.2-)
Protocol: To measure cell viability in cytotoxicity experiments, the measurement of luminescence using GloMax® Discover was used, and the measurement method was according to the equipment manual.
Four types of cell lines (MIA PaCa-2˜CLDN18.2, PATU8988S, parental MIA PaCa-2 (CLDN18.2-), SNU601, NUGC-4, and AGS) were prepared. At this time, MIA PaCa-2˜CLDN18.2 and PATU8988S are CLDN18.2-positive pancreatic cancer cell lines. MIA PaCa-2 (CLDN18.2-) is a CLDN18.2-negative pancreatic cancer cell line. SNU601 and NUGC-4 are CLDN18.2-positive gastric cancer cell lines. AGS is a CLDN18.2-negative gastric cancer cell line.
The prepared cell lines were cultured in DMEM containing 10% FBS and 1% penicillin/streptomycin (MIA PaCa-2˜CLDN18.2, MIA PaCa-2 (CLDN18.2-)), RPMI1640 containing 10% FBS and 1% penicillin/streptomycin (SNU601, NUGC-4, and AGS), and DMEM containing 5% FBS, 5% horse serum, 1% penicillin/streptomycin, and […] L-glutamine (PATU8988S) in an incubator under the conditions of 37° C. and 5% CO2. […]
Changes in cell viability according to treatment of each test substance were measured using the same method as the CellTiter-Glo manual.
The measured results were used for a regression analysis in GraphPad PRISM® 9.0 software to calculate IC50. The cytotoxicity of each test substance was evaluated based on the calculated values.

[5] = Day 1, 1 mg/kg intravenous injection once/day 1 (G3, G4)
[6] = Day 1, 1 mg/kg intravenous injection twice/day 1 and day 7 (G5)
[7] = Day 1, 1.5 mg/kg intravenous injection once/day 1 (G6)
[8] = Day 1, 1.75 mg/kg intravenous injection once/day 1 (G7)
[9] = Day 1, 2 mg/kg intravenous injection once/day 1 (G2, G8)
[10] = Day 28, 1 mg/kg intravenous injection once/day 1 (G3, G4)
[11] = Day 28, 1 mg/kg intravenous injection twice/day 1 and day 7 (G5)
[12] = Day 28, 1.5 mg/kg intravenous injection once/day 1 (G6)
[13] = Day 28, 1.75 mg/kg intravenous injection once/day 1 (G7)
[14] = Day 28, 2 mg/kg intravenous injection once/day 1 (G2, G8)

B1: ADC-A (conjugate)
heavy: QVQLVESGGGVVQPGRSLRLSCAASGFSLTTYGVHWVRQAPGKGLEWVAVIWAGGSTNYNSALMSRFTISRDNSKNTLYLQMNSLRAEDTAVYYCARAAYYGNGLDYWGQGTMVTVSS[… human IgG1 constant region …]
light: DIVMTQSPLSLPVTPGEPASISCKSSQTLLNSGNQKNYLTWYLQKPGQSPQLLIYWASTGESGVPDRFSGSGSGTDFTLKISRVEAEDVGVYYCQNAYFYPFTFGGGTKVEIKRTVAAPSVFIFPPSDEQLKSGTASVVCLLNNFYPREAKVQWKVDNALQSGNSQESVTEQDSKDSTYSLSSTLTLSKADYEKHKVYACEVTHQGLSSPVTKSFNRGEC
- Tumor volume (mean ± standard deviation) [1, 5]: 155.9 mm^3
- Tumor volume (mean ± standard deviation) [1, 6]: 155.7 mm^3
- Tumor volume (mean ± standard deviation) [1, 7]: 155.2 mm^3
- Tumor volume (mean ± standard deviation) [1, 8]: 155.2 mm^3
- Tumor volume (mean ± standard deviation) [1, 9]: 155.9 mm^3
- Tumor volume (mean ± standard deviation) ([1]; Day 8, 1 mg/kg intravenous injection once/day 1 (G3, G4)): 131.7 mm^3
- Tumor volume (mean ± standard deviation) ([1]; Day 8, 1 mg/kg intravenous injection twice/day 1 and day 7 (G5)): 132.1 mm^3
- Tumor volume (mean ± standard deviation) ([1]; Day 8, 1.5 mg/kg intravenous injection once/day 1 (G6)): 95.6 mm^3
- Tumor volume (mean ± standard deviation) ([1]; Day 8, 1.75 mg/kg intravenous injection once/day 1 (G7)): 72.8 mm^3
- Tumor volume (mean ± standard deviation) ([1]; Day 8, 2 mg/kg intravenous injection once/day 1 (G2, G8)): 88.0 mm^3
- Tumor volume (mean ± standard deviation) ([1]; Day 15, 1 mg/kg intravenous injection once/day 1 (G3, G4)): 132.8 mm^3
- Tumor volume (mean ± standard deviation) ([1]; Day 15, 1 mg/kg intravenous injection twice/day 1 and day 7 (G5)): 95.3 mm^3
- Tumor volume (mean ± standard deviation) ([1]; Day 15, 1.5 mg/kg intravenous injection once/day 1 (G6)): 78.8 mm^3
- Tumor volume (mean ± standard deviation) ([1]; Day 15, 1.75 mg/kg intravenous injection once/day 1 (G7)): 26.5 mm^3
- Tumor volume (mean ± standard deviation) ([1]; Day 15, 2 mg/kg intravenous injection once/day 1 (G2, G8)): 62.2 mm^3
- Tumor volume (mean ± standard deviation) ([1]; Day 22, 1 mg/kg intravenous injection once/day 1 (G3, G4)): 145.0 mm^3
- Tumor volume (mean ± standard deviation) ([1]; Day 22, 1 mg/kg intravenous injection twice/day 1 and day 7 (G5)): 97.7 mm^3
- Tumor volume (mean ± standard deviation) ([1]; Day 22, 1.5 mg/kg intravenous injection once/day 1 (G6)): 73.8 mm^3
- Tumor volume (mean ± standard deviation) ([1]; Day 22, 1.75 mg/kg intravenous injection once/day 1 (G7)): 11.1 mm^3
- Tumor volume (mean ± standard deviation) ([1]; Day 22, 2 mg/kg intravenous injection once/day 1 (G2, G8)): 66.2 mm^3
- TGI (Tumor growth inhibition) [1, 10]: 60.1%
- Tumor volume (mean ± standard deviation) [1, 10]: 169.2 mm^3
- TGI (Tumor growth inhibition) [1, 11]: 71.8%
- Tumor volume (mean ± standard deviation) [1, 11]: 119.3 mm^3
- TGI (Tumor growth inhibition) [1, 12]: 79.2%
- Tumor volume (mean ± standard deviation) [1, 12]: 87.7 mm^3
- TGI (Tumor growth inhibition) [1, 13]: 98.3%
- Tumor volume (mean ± standard deviation) [1, 13]: 7.3 mm^3
- TGI (Tumor growth inhibition) [1, 14]: 82.2%
- Tumor volume (mean ± standard deviation) [1, 14]: 75.2 mm^3
- Tumor weight (mean ± standard deviation) ([1]; 1 mg/kg intravenous injection once/day 1 (G3, G4)): 0.082 ± 0.020 g
- Tumor weight (mean ± standard deviation) ([1]; 1 mg/kg intravenous injection twice/day 1 and day 7 (G5)): 0.047 ± 0.033 g
- Tumor weight (mean ± standard deviation) ([1]; 1.5 mg/kg intravenous injection once/day 1 (G6)): 0.038 ± 0.012 g
- Tumor weight (mean ± standard deviation) ([1]; 1.75 mg/kg intravenous injection once/day 1 (G7)): 0.002 ± 0.006 g
- Tumor weight (mean ± standard deviation) ([1]; 2 mg/kg intravenous injection once/day 1 (G2, G8)): 0.027 ± 0.035 g
- Body weight (mean ± standard deviation) [2, 5]: 20.2 ± 0.8 g
- Body weight (mean ± standard deviation) [2, 6]: 20.0 ± 1.0 g
- Body weight (mean ± standard deviation) [2, 7]: 20.1 ± 0.6 g
- Body weight (mean ± standard deviation) [2, 8]: 20.4 ± 1.2 g
- Body weight (mean ± standard deviation) [2, 9]: 20.8 ± 1.5 g
- Body weight (mean ± standard deviation) [2, 10]: 22.2 ± 0.9 g
- Body weight (mean ± standard deviation) [2, 11]: 22.3 ± 0.7 g
- Body weight (mean ± standard deviation) [2, 12]: 22.8 ± 1.0 g
- Body weight (mean ± standard deviation) [2, 13]: 22.6 ± 1.0 g
- Body weight (mean ± standard deviation) [2, 14]: 23.6 ± 2.3 g
- effects on the changes in body weight ([2]; during the study period): no effects
- histological gastric lesions ([2]; even in the highest concentration administration group G8): No histological gastric lesions
- binding to Claudin18.1 CHO-K1 cell line [3]: did not bind
- toxicity in CLDN18.2-negative cell lines [4]: almost no toxicity
